Assay results published in patent US20220389066A1 (Affibody, published 2022).

Experiments:
[1] = target: T1, boxA(disulfide), disulfide linked form of A-box domain of HMGB1 (human, UniProt P09429 1-89, disulfide C23-C45); assay: SPR (Biacore 2000); Z-ABD captured on HSA, analyte injected; 1:1 Langmuir model
T1 construct: also called b-boxA(disulfide)
T1 sequence: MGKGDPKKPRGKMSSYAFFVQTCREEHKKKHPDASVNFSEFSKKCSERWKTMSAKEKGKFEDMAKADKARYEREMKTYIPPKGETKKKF
Method: (§1) Biacore kinetic and specificity analysis: The interactions of the A-box binding Z-ABD polypeptides ZA3812 (SEQ ID NO:35) and ZA3914 (SEQ ID NO:36) with four different HMGB1 variants were analyzed in a Biacore instrument by injecting various concentrations of HMGB1 variants over a surface containing ZA3812 and ZA3914, respectively, captured on immobilized HSA. […] In addition, the interaction of the B-box binding Z-ABD polypeptide ZA3975 (SEQ ID NO:37) was analyzed for binding to HMGB1(red) in the same manner.

[2] = target: T2, human serum albumin (HSA) (human, UniProt P02768 25-609); assay: SPR (Biacore 2000); capture on immobilized HSA through the ABD moiety
T2 construct: Immobilized on sensor chips to capture ABD (PP013) fusions
T2 sequence (P02768 25-609 limits assumed): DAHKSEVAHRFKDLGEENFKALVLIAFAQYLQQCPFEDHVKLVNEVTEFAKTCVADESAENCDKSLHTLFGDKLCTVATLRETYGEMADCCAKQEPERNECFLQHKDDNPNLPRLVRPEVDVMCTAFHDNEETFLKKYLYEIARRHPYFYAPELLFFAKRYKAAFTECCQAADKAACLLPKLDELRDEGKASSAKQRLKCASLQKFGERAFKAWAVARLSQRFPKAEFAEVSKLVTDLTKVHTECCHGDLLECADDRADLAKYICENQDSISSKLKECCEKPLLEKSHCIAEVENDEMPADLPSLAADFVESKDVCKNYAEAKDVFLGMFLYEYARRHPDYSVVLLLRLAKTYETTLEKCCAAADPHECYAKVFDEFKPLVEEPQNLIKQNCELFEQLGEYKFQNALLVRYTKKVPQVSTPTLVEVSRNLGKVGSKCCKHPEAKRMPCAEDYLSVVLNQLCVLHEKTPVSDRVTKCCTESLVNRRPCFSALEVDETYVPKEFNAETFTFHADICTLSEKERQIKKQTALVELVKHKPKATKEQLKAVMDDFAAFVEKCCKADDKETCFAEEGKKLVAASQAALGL

[3] = target: T3, HMGB1(disulfide), disulfide linked form of full-length HMGB1 (HMGB1C23-C45C106h) (rat, UniProt P63159 1-215, disulfide C23-C45; C106 reduced); assay: SPR (Biacore 2000); Z-ABD captured on HSA, analyte injected; heterogeneous ligand parallel reactions model, ka1
T3 construct: unlabelled in Biacore and Attana; also called b-HMGB1(disulfide)
T3 sequence: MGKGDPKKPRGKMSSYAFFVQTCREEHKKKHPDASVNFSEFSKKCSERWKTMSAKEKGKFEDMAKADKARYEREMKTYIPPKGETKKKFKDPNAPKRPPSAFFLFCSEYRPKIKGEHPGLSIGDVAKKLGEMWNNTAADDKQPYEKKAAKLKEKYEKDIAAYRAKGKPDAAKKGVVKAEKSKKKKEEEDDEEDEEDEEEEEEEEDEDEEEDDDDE
Method: as §1

[4] = target: T3, HMGB1(disulfide), disulfide linked form …; assay: SPR (Biacore 2000); Z-ABD captured on HSA, analyte injected; heterogeneous ligand parallel reactions model, kd1
Method: as §1

[5] = target: T3, HMGB1(disulfide), disulfide linked form …; assay: SPR (Biacore 2000); Z-ABD captured on HSA, analyte injected; heterogeneous ligand parallel reactions model, kd2
Method: as §1

[6] = target: T4, GST-boxA(red), reduced form of A-box domain of HMGB1 with N-terminal GST tag (human, cysteines reduced); assay: SPR (Biacore 2000); Z-ABD captured on HSA, analyte injected, 2 mM DTT; 1:1 Langmuir model
T4 construct: Used biotinylated (b-GST-boxA(red)) in ELISA; also called b-GST-boxA(red)
Method: as §1

[7] = target: T5, HMGB1(red), fully reduced form of full-length HMGB1 (HMGB1C23hC45hC106h) (rat, UniProt P63159 1-215, all cysteines reduced (C23h, C45h, C106h)); assay: as above
T5 construct: Produced by HMGBiotech; also called HMGB1(reduced); b-HMGB1(red)
T5 sequence: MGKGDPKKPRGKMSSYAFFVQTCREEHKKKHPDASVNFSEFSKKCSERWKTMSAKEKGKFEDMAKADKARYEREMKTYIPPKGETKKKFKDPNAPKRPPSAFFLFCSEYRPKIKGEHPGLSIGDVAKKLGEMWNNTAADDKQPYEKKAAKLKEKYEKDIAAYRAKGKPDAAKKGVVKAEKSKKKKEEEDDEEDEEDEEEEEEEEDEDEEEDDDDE
Method: as §1

[8] = target: T3, HMGB1(disulfide), disulfide linked form …; assay: SPR (Biacore 2000); Z-ABD captured on HSA, analyte injected; heterogeneous ligand parallel reactions model, KD1
Method: (§2) Biacore kinetic and specificity analysis: Kinetic constants (kₐ and kd) and affinities (KD) for HMGB1(red), HMGB1(disulfide), boxA(disulfide) and GST-boxA(red) were determined for the A-box binding Z-ABD polypeptides ZA3812 (SEQ ID NO:35) and ZA3914 (SEQ ID NO:36) (see Example 2), as well as for the HMGB1(red) interaction with the B-box binding polypeptide ZA3975, using a Biacore 2000 instrument (GE Healthcare).
(§3) The experiment was performed as a capture assay, in which human serum albumin (HSA, Novozymes, cat. no. 230-005) was immobilized on the carboxylated dextran layer of one CM5 chip surface (GE Healthcare, cat. no. BR100012) to immobilization levels of approximately 3000 RU. The immobilization was performed using amine coupling chemistry according to the manufacturer's protocol and using HBS-EP (GE Healthcare, cat. no. BR100188) as running buffer. In a first set of experiments, Z-ABD polypeptides were analyzed under non-reducing conditions. One flow cell surface was activated and deactivated for use as blank during ligand and analyte injections. In the kinetic experiment, HBS-EP was used as running buffer and the flow rate was 30 μl/min. The ligand, i.e. the Z-ABD polypeptide, was diluted in HBS-EP buffer to a concentration of 30 nM and injected during 2 min. […]

[9] = target: T3, HMGB1(disulfide), disulfide linked form …; assay: SPR (Biacore 2000); Z-ABD captured on HSA, analyte injected; heterogeneous ligand parallel reactions model, ka2
Method: as §2, §3

[10] = target: T3, HMGB1(disulfide), disulfide linked form …; assay: SPR (Biacore 2000); Z-ABD captured on HSA, analyte injected; heterogeneous ligand parallel reactions model, KD2
Method: as §1

B1: ZA3914 ([ZH 28]-ASGS-PP013) (designed binder)
chain: AEAKYAKEAWQAMEEILWLPNLTNTQQLAFIYKLEDDPSQSSELLSEAKKLNDSQAPKASGSLAEAKEAANAELDSYGVSDFYKRLIDKAKTVEGVEALKDAILAALP
Kd [1]: 0.9 nM
koff [1]: 0.00015 s⁻¹
kon [1]: 170000 M⁻¹ s⁻¹
binding result [2]: binds
kon [3]: 180000 M⁻¹ s⁻¹
koff [4]: 0.025 s⁻¹
koff [5]: 9.5e-05 s⁻¹
Kd [6]: 0.8 nM
koff [6]: 0.0001 s⁻¹
kon [6]: 120000 M⁻¹ s⁻¹
Kd [7]: 6.1 nM
koff [7]: 0.0011 s⁻¹
kon [7]: 180000 M⁻¹ s⁻¹
Kd [8]: 140 nM
kon [9]: 14000 M⁻¹ s⁻¹
Kd [10]: 6.8 nM
